Reference: the supplement of paper PMC8728848
Some of the results follow.

Legend:
Test in all cases: glycan array binding signal (z-score within array); higher = stronger binding
Conditions in all cases: glycan notation: IUPAC condensed, linker removed
GalNAc(b1-3)GalNAc = biological target: GalNAc(b1-3)GalNAc
Procedure, shortened: (§1)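 Arrays were curated from the Consortium for Functional Glycomics database, 3228 in total, and kept only where the protein sequence was available. Binding is expressed as a within-array Z-score. This score was averaged across arrays of the same protein sequence at different concentrations or buffers and across linkers, and negative values can be read as non-binding.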

GalNAc(b1-4)GlcNAc = biological target: GalNAc(b1-4)GlcNAc
Procedure, shortened: as §1

Glc(a1-4)Glc = biological target: Glc(a1-4)Glc
Procedure, shortened: as §1

Glc(a1-6)Glc(a1-6)Glc = biological target: Glc(a1-6)Glc(a1-6)Glc
Procedure, shortened: as §1

Glc(b1-4)Glc = biological target: Glc(b1-4)Glc
Procedure, shortened: as §1

Glc(b1-6)Glc = biological target: Glc(b1-6)Glc
Procedure, shortened: as §1

GlcA(b1-3)Gal = biological target: GlcA(b1-3)Gal
Procedure, shortened: as §1

GlcA(b1-3)GlcNAc = biological target: GlcA(b1-3)GlcNAc
Procedure, shortened: as §1

GlcA(b1-6)Gal = biological target: GlcA(b1-6)Gal
Procedure, shortened: as §1

[1] = biological target: GlcNAc(a1-3)Gal(b1-4)GlcNAc
Procedure, shortened: as §1

[2] = biological target: GlcNAc(a1-6)Gal(b1-4)GlcNAc
Procedure, shortened: as §1

[3] = biological target: GlcNAc(b1-2)Gal(b1-3)GalNAc
Procedure, shortened: as §1

[4] = biological target: GlcNAc(b1-2)Man(a1-3)[GlcNAc(b1-2)Man(a1-6)]Man(b1-4)GlcNAc(b1-4)GlcNAc
Procedure, shortened: as §1

GlcNAc(b1-3)Gal = biological target: GlcNAc(b1-3)Gal
Procedure, shortened: as §1

[5] = biological target: GlcNAc(b1-3)Gal(b1-3)GalNAc
Procedure, shortened: as §1

GlcNAc(b1-3)Gal(b1-4)Glc = biological target: GlcNAc(b1-3)Gal(b1-4)Glc
Procedure, shortened: as §1

[6] = biological target: GlcNAc(b1-3)Gal(b1-4)GlcNAc
Procedure, shortened: as §1

[7] = biological target: GlcNAc(b1-3)Gal(b1-4)GlcNAc(b1-3)Gal(b1-4)GlcNAc
Procedure, shortened: as §1

GlcNAc(b1-3)GalNAc = biological target: GlcNAc(b1-3)GalNAc
Procedure, shortened: as §1

GlcNAc(b1-3)Man = biological target: GlcNAc(b1-3)Man
Procedure, shortened: as §1

[8] = biological target: GlcNAc(b1-3)[GlcNAc(b1-4)][GlcNAc(b1-6)]GlcNAc
Procedure, shortened: as §1

[9] = biological target: GlcNAc(b1-3)[GlcNAc(b1-6)]Gal(b1-4)GlcNAc
Procedure, shortened: as §1

[10] = biological target: GlcNAc(b1-3)[GlcNAc(b1-6)]GalNAc
Procedure, shortened: as §1

[11] = biological target: GlcNAc(b1-4)Gal(b1-4)GlcNAc
Procedure, shortened: as §1

GlcNAc(b1-4)GlcNAc = biological target: GlcNAc(b1-4)GlcNAc
Procedure, shortened: as §1

[12] = biological target: GlcNAc(b1-4)GlcNAc(b1-4)GlcNAc
Procedure, shortened: as §1

[13] = biological target: GlcNAc(b1-4)GlcNAc(b1-4)GlcNAc(b1-4)GlcNAc(b1-4)GlcNAc
Procedure, shortened: as §1

[14] = biological target: GlcNAc(b1-4)GlcNAc(b1-4)GlcNAc(b1-4)GlcNAc(b1-4)GlcNAc(b1-4)GlcNAc
Procedure, shortened: as §1

[15] = biological target: GlcNAc(b1-4)[GlcNAc(b1-6)]GalNAc
Procedure, shortened: as §1

[16] = biological target: GlcNAc(b1-6)Gal(b1-4)GlcNAc
Procedure, shortened: as §1

GlcNAc(b1-6)GalNAc = biological target: GlcNAc(b1-6)GalNAc
Procedure, shortened: as §1

GlcNAc3Prop(b1-4)GlcNAc = biological target: GlcNAc3Prop(b1-4)GlcNAc
Procedure, shortened: as §1

Kdn(a2-3)Gal(b1-3)GlcNAc = biological target: Kdn(a2-3)Gal(b1-3)GlcNAc
Procedure, shortened: as §1

Kdn(a2-3)Gal(b1-4)GlcNAc = biological target: Kdn(a2-3)Gal(b1-4)GlcNAc
Procedure, shortened: as §1

[17] = biological target: Man(a1-2)Man(a1-2)Man(a1-3)Man
Procedure, shortened: as §1

[18] = biological target: Man(a1-2)Man(a1-2)Man(a1-6)[Man(a1-3)]Man
Procedure, shortened: as §1

Man(a1-2)Man(a1-3)Man = biological target: Man(a1-2)Man(a1-3)Man
Procedure, shortened: as §1

[19] = biological target: Man(a1-2)Man(a1-3)[Man(a1-2)Man(a1-6)]Man
Procedure, shortened: as §1

[20] = biological target: Man(a1-2)Man(a1-3)[Man(a1-2)Man(a1-6)]Man(a1-6)[Man(a1-2)Man(a1-2)Man(a1-3)]Man
Procedure, shortened: as §1

[21] = biological target: Man(a1-2)Man(a1-3)[Man(a1-2)Man(a1-6)]Man(a1-6)[Man(a1-2)Man(a1-2)Man(a1-3)]Man(b1-4)GlcNAc(b1-4)GlcNAc
Procedure, shortened: as §1

[22] = biological target: Man(a1-2)Man(a1-3)[Man(a1-6)]Man(a1-6)[Man(a1-2)Man(a1-3)]Man(b1-4)GlcNAc(b1-4)GlcNAc
Procedure, shortened: as §1

[23] = biological target: Man(a1-2)Man(a1-6)[Man(a1-3)]Man(a1-6)[Man(a1-2)Man(a1-2)Man(a1-3)]Man
Procedure, shortened: as §1

[24] = biological target: Man(a1-2)Man(a1-6)[Man(a1-3)]Man(a1-6)[Man(a1-2)Man(a1-2)Man(a1-3)]Man(b1-4)GlcNAc(b1-4)GlcNAc
Procedure, shortened: as §1

Man(a1-3)[Man(a1-6)]Man = biological target: Man(a1-3)[Man(a1-6)]Man
Procedure, shortened: as §1

[25] = biological target: Man(a1-3)[Man(a1-6)]Man(a1-6)[Man(a1-2)Man(a1-3)]Man(b1-4)GlcNAc(b1-4)GlcNAc
Procedure, shortened: as §1

B1: SLR2P3F12 (Tachypleus tridentatus), TAL2_TACTR (protein)
chain: MEKGTPPTHDSDNWMGRAKKIGNGGWNQFQFLFFDPNGYLYAVSKDKLYKASPPQSDTDNWIARATEIGSGGWSGFKSLFFHPNGYLYAVHGQRLYKALPPVSNQD
For B1, the “glycan array binding signal (z-score)” value (GalNAc(b1-3)GalNAc) was -0.148, the “glycan array binding signal (z-score)” value (GalNAc(b1-4)GlcNAc) was -0.615 and the “glycan array binding signal (z-score)” value (Glc(a1-4)Glc) was 0.228. The “glycan array binding signal (z-score)” value (Glc(a1-6)Glc(a1-6)Glc) was -0.231, the “glycan array binding signal (z-score)” value (Glc(b1-4)Glc) was -0.402 and the “glycan array binding signal (z-score)” value (Glc(b1-6)Glc) was 0.131. For the same binder, the “glycan array binding signal (z-score)” value (GlcA(b1-3)Gal) was 0.008, the “glycan array binding signal (z-score)” value (GlcA(b1-3)GlcNAc) was -0.047 and the “glycan array binding signal (z-score)” value (GlcA(b1-6)Gal) was -0.074. The “glycan array binding signal (z-score)” value [1] was 5.11, the “glycan array binding signal (z-score)” value [2] was 13.2 and the “glycan array binding signal (z-score)” value [3] was -0.411. For the same binder, the “glycan array binding signal (z-score)” value [4] was -0.032, the “glycan array binding signal (z-score)” value (GlcNAc(b1-3)Gal) was -0.413 and the “glycan array binding signal (z-score)” value [5] was -0.325. The “glycan array binding signal (z-score)” value (GlcNAc(b1-3)Gal(b1-4)Glc) was -0.166, the “glycan array binding signal (z-score)” value [6] was -0.194 and the “glycan array binding signal (z-score)” value [7] was -0.426. The “glycan array binding signal (z-score)” value (GlcNAc(b1-3)GalNAc) was -0.359, the “glycan array binding signal (z-score)” value (GlcNAc(b1-3)Man) was 0.492 and the “glycan array binding signal (z-score)” value [8] was -0.469. For the same binder, the “glycan array binding signal (z-score)” value [9] was -0.471, the “glycan array binding signal (z-score)” value [10] was 0.799 and the “glycan array binding signal (z-score)” value [11] was -0.49. For the same binder, the “glycan array binding signal (z-score)” value (GlcNAc(b1-4)GlcNAc) was -0.225, the “glycan array binding signal (z-score)” value [12] was -0.41 and the “glycan array binding signal (z-score)” value [13] was -0.445. For the same binder, the “glycan array binding signal (z-score)” value [14] was 0.038, the “glycan array binding signal (z-score)” value [15] was -0.186 and the “glycan array binding signal (z-score)” value [16] was -0.334. The “glycan array binding signal (z-score)” value (GlcNAc(b1-6)GalNAc) was -0.424, the “glycan array binding signal (z-score)” value (GlcNAc3Prop(b1-4)GlcNAc) was -0.433 and the “glycan array binding signal (z-score)” value (Kdn(a2-3)Gal(b1-3)GlcNAc) was -0.011. The “glycan array binding signal (z-score)” value (Kdn(a2-3)Gal(b1-4)GlcNAc) was -0.446, the “glycan array binding signal (z-score)” value [17] was -0.489 and the “glycan array binding signal (z-score)” value [18] was -0.021. The “glycan array binding signal (z-score)” value (Man(a1-2)Man(a1-3)Man) was -0.434, the “glycan array binding signal (z-score)” value [19] was -0.388 and the “glycan array binding signal (z-score)” value [20] was -0.234. For the same binder, the “glycan array binding signal (z-score)” value [21] was 0.798, the “glycan array binding signal (z-score)” value [22] was -0.302 and the “glycan array binding signal (z-score)” value [23] was -0.273. For the same binder, the “glycan array binding signal (z-score)” value [24] was 0.04, the “glycan array binding signal (z-score)” value (Man(a1-3)[Man(a1-6)]Man) was 0.42 and the “glycan array binding signal (z-score)” value [25] was 0.637.
